Publication PMC4336329 (PLoS ONE, 2015)
In all, about 310,000 compounds went through this assay and about 2,200 (0.71%) showed an effect of 50% or more. Effects have a minus sign here. Some of the results follow.

Each molecule was assayed against human ether-à-go-go-related gene (hERG) potassium channel (human, UniProt Q12809) (assay: primary screen, population patch clamp on CHO cells stably expressing hERG).
human ether-à-go-go-related gene (hERG) potassium channel, sequence (Q12809 whole entry, looked up): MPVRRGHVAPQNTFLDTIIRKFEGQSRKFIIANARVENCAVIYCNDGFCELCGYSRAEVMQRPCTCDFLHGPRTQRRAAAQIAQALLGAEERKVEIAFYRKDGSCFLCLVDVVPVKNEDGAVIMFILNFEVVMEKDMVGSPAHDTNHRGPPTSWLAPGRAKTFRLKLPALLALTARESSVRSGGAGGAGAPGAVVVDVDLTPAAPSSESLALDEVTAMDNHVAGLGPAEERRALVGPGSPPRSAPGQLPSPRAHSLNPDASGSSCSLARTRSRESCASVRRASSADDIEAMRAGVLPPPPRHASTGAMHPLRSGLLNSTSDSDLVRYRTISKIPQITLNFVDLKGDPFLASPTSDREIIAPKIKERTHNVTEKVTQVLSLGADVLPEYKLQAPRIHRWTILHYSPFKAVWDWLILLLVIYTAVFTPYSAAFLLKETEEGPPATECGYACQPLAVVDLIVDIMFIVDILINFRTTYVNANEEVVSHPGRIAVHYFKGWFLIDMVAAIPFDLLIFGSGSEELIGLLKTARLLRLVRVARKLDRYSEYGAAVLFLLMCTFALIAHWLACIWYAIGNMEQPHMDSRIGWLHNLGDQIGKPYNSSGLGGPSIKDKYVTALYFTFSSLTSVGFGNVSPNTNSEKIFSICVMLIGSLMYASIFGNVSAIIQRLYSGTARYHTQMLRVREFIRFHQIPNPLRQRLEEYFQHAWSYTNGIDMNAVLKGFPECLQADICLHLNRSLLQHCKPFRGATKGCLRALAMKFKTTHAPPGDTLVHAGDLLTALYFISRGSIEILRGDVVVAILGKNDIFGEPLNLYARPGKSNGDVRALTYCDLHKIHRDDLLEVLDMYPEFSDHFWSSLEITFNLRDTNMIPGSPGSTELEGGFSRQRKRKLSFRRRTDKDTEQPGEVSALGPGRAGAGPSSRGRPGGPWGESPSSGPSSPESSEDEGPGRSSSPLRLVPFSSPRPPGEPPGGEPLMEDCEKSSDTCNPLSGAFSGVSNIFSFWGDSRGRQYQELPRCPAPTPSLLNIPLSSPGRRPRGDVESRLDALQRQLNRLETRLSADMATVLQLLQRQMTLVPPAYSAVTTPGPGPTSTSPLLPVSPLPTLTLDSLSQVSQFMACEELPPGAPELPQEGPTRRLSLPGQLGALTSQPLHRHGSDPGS

Row | SMILES | hERG current change (%, negative = inhibition) at 1uM
1 | Cc1ccc(C23OCCN2CCn2nc4ccccc4c23)cc1 (stereo not shown) | 10%
2 | Cc1cc(C)c(OCCCNCc2ccccc2)c(Br)c1.O=C(O)C(=O)O | 10.5%
3 | COc1ccc(NC(=O)c2nc[nH]c2C(=O)N[C@H](C)c2ccccc2)cc1 | 6.67%
4 | CCC(SC1=N/C(=C/c2ccccc2OC)C(=O)N1c1ccccc1)C(=O)Nc1cc(C)on1 (stereo not shown) | -0.366%
5 | O=C(N/N=C/C=C/c1ccccc1[N+](=O)[O-])c1cccs1 | 6.89%
6 | CCOC(CNC(=O)c1cc(C)nn1-c1ccccc1)OCC | -1.47%
7 | O=C(Nc1sc2c(c1C(=O)O)CCCC2)c1cccs1 | 10.5%
8 | COc1cccc(C2/C(=C(/O)c3ccccc3)C(=O)C(=O)N2Cc2ccco2)c1 (stereo not shown) | 14.3%
9 | Fc1nc(F)c(F)c(NCCCNc2c(F)c(F)nc(F)c2F)c1F | 9.7%
10 | Cc1ccc(-n2c(O)cnc2Nc2nc(C)cc(C)n2)cc1 | 10.2%
11 | Cc1onc(-c2ccccc2)c1C(=O)N1CCCC1 | 8.51%
12 | CCNc1nc(NCC)n2c(SCC(=O)Nc3cc(Cl)ccc3OC)nnc2n1 | -3%
13 | CN1CCN(/N=C/c2c3ccccc3c(Cl)c3ccccc23)CC1.Cl | 5.45%
14 | NC(=O)Nc1ccccc1C(=O)N1CCC(O)(c2ccc(Cl)cc2)CC1 | 4.63%
15 | CCC(C)c1ccc(S(=O)(=O)Nc2cccnc2)cc1.Cl (stereo not shown) | 9.63%
16 | CC(=O)NC(c1ccccc1)c1cc([N+](=O)[O-])c2cccnc2c1O (stereo not shown) | 8.48%
17 | COc1cc2ccccc2cc1C(=O)NCc1ccncc1 | 2.89%
18 | CC(C(=O)O)n1c2ccccc2c2cn[nH]c(=O)c21 (stereo not shown) | 14.5%
19 | Cc1ccc(C)c(S(=O)(=O)N2CCCCC2CCNC(=O)C(=O)NCc2cccnc2)c1 (stereo not shown) | 3.69%
20 | CCCN(CCC)CCCNC(=O)c1cc2c(=O)n(C)c3ccccc3c2n1C | 4.94%
21 | CCc1ccc(C(=O)Nc2cc(C)ccc2F)s1 | 10.4%
22 | NC(=O)c1sc2nc3c(c(-c4ccco4)c2c1N)CCC3 | -1.6%

Row | SMILES | hERG current change (%, negative = inhibition) at 1uM
23 | CC(=O)N1CCSc2ccc(S(=O)(=O)Nc3cccc(C)c3)cc21 | 5.18%
24 | Cc1nonc1CN(C)C(=O)CC1C(=O)NCCN1Cc1c(F)cccc1Cl (stereo not shown) | 6.14%
25 | C=CCNC(=O)c1cc2c(=O)n3cc(C)ccc3nc2nc1NCC1CCCO1 (stereo not shown) | -82%
26 | COc1ccc(S(=O)(=O)NCc2ccccn2)c(Cl)c1Cl | -2.93%
27 | CCn1c(COc2ccc3c(c2)OCO3)nnc1SCC(=O)c1ccc(Cl)cc1 | 11.1%
28 | NNC(=O)c1sccc1OCc1ccc(Cl)cc1 | 13.2%
29 | CC(C)NC(=O)CSc1nc2ccccc2n1CC(=O)N1CCc2ccccc21 | 8.47%
30 | O=C(NCc1ccccc1)C1CCCN(c2ncnc3c2nc2n3CCCCC2)C1 (stereo not shown) | -30.8%
31 | COc1ccccc1N1CCN(C(=O)c2cc(-c3ccc(F)cc3)on2)CC1 | 19.3%
32 | COc1ccc(Nc2nc(C(C)(C)C)nc3c2nnn3Cc2ccccc2Cl)cc1OC | 7.93%
33 | CN1CCN(c2ccccc2NC(=O)c2ccc(-c3ccc(Br)cc3)o2)CC1 | 2.24%
34 | O=C(CNS(=O)(=O)c1ccc(Br)cc1Cl)OCC(=O)c1ccc[nH]1 | 4.02%
35 | Clc1ccc(C(c2ccccc2)N2CCNCC2)cc1 (stereo not shown) | -3.9%
36 | COC(=O)c1[nH]c2cc(OC)c(OC)cc2c1NC(=O)CN1C[C@H]2C[C@@H](C1)c1cccc(=O)n1C2 | 7.05%
37 | Cc1ccc(OCCC(=O)OCC(=O)Nc2ccc3[nH]c(=O)[nH]c3c2)cc1 | 4.44%
38 | O=C(/C=C/c1ccccc1[N+](=O)[O-])N1CCN(c2ccccc2F)CC1 | 13.1%
39 | O=C(N/N=C(\Cc1ncc[nH]1)c1ccccc1)c1cccnc1 | 13.4%
40 | O=C(Nc1ccc(-c2nc3cc(NC(=O)c4cccs4)ccc3o2)cc1)c1cccs1 | 24.6%
41 | NS(=O)(=O)OCC(Cc1ccccc1)N1C(=O)c2ccccc2C1=O (stereo not shown) | 6.52%
42 | Cc1cc(C)cc(NC(=O)N(CCC#N)Cc2cccs2)c1 | 11.3%
43 | O=C(O)c1ccc(N/N=C/c2ccc(OC(=O)c3cccc(Cl)c3)cc2)cc1 | 7.33%
